According to PubChem BioAssay AID686978 (National Center for Advancing Translational Sciences (NCATS), 2013):
Screen size: about 420,000 compounds; about 64,000 (15%) were called active. Inconclusive results, whose numbers are uncertain, are shown with a selection of clear calls. The call rests on the fitted dose curve; in most records, active means well fitted inhibition curve with a large enough effect; inconclusive means small, poorly fitted or top-dose-only effect; inactive means flat fitted curve, though single readings scatter. Potencies of inconclusive entries are left out as doubtful fits.

Assay: qHTS for Inhibitors of human tyrosyl-DNA phosphodiesterase 1 (TDP1): qHTS in cells in absence of CPT; further: nearly all actives have a fitted effect of over 55% in size
Details: DT40 Tdp1-/- hTDP1 cells, no CPT, ATP luminescence, 48 h; activity change, negative = growth inhibition: at 46.2 µM (top of the series) unless noted
How it was run: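 Compound effects on proliferation are scored in DT40 Tdp1-/-;hTDP1 cells in the absence of CPT. ATP levels (CellTiter-Glo luminescence) are recorded after a ≥48 hr, 37 °C incubation.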
On the % scale 0 is the no-effect control and ±100 the full control effect; potency means the concentration at half of the fitted maximal effect; tags describe the fitted curve by direction and shape.

Row | Compound | Potency | activity change, negative = growth inhibition
1 | Brc1ccc(-c2csc3ncnc(-n4nnc5ccccc54)c23)cc1 | inconclusive [inhibitor, single point] | 
2 | CCc1cccc(C)c1Nc1c(-c2ccc(F)cc2)nc2sccn12 | inconclusive [inhibitor, single point] | 
3 | COc1ccc(-c2cc3cc4c(cc3cn2)OCO4)cc1 | inactive | 
4 | Cc1ccc(S(=O)(=O)N2[C@H](CC(=O)c3ccccc3)OC[C@@H]2C)cc1 | inconclusive [inhibitor, partial curve] | 
5 | Cc1ccc(SCC(=O)NNC(=O)CCS(=O)(=O)c2ccccc2)cc1 | inactive | 
6 | Cc1cccc(NS(=O)(=O)c2csc(C(N)=O)c2)c1 | inactive | 
7 | CC(=O)/C(CN1CCCCC1)=N\O | inactive | 
8 | CCCCN(C)CCC(=O)Nc1ccc2c(c1)CCC2 | inconclusive [inhibitor, full curve] | 
9 | O=C1c2[nH]nc(-c3ccccc3O)c2C(c2cccc(OCc3ccccc3)c2)N1CCCO (stereo unspecified) | inconclusive [inhibitor, single point] | 
10 | Fc1ccc(N2CCN(Cc3nnc(-c4ccccc4Cl)o3)CC2)cc1 | inactive | 
11 | Cc1ccc2c(=O)c(C(=O)c3ccccc3)cn(CC(=O)NCc3ccccc3)c2n1 | inconclusive [inhibitor, full curve] | 
12 | OC(C1=C/C(=C\c2ccncc2)c2ccccc21)c1ccncc1 (stereo unspecified) | active: 11.2 µM | 
13 | Nc1[nH]c(C(=O)c2ccccc2)c(-c2ccc(Cl)cc2Cl)c1C(=O)NCCc1c[nH]c2ccccc12 | inconclusive [inhibitor, single point] | 
14 | CCOC(=O)N1CCN(C(=O)c2cccc(S(=O)(=O)Nc3ccc(OC)cc3)c2)CC1 | inconclusive [inhibitor, partial curve, poor fit] | 
15 | O=C(Nc1ccccc1-c1nnc(SCc2ccc(Cl)cc2)o1)c1ccccc1 | inconclusive [inhibitor, partial curve] | 
16 | CN(C)S(=O)(=O)c1cccc(C(=O)NCC(C)(C)CNC(=O)c2cccc(S(=O)(=O)N(C)C)c2)c1 | inconclusive [inhibitor, single point] | 
17 | CN(C)c1ccnc(NCc2ccccc2)c1C#N | inactive | 
18 | CC1Oc2ccccc2OC1(O)c1ccc2ccccc2n1 (stereo unspecified) | inconclusive [inhibitor, single point] | 
19 | O=C(COc1ccc(F)cc1Br)NCC1(N2CCCCC2)CCCCC1 | inconclusive [inhibitor, single point] | 
20 | CCCCN(CC)CCNC(=S)Nc1ccc2nc(N3CCN(C)CC3)cc(C)c2c1 | active: 18.4 µM | 
21 | S=c1[nH]nc(-c2ccco2)n1/N=C/C(Cl)=C/c1ccccc1 | active: 14.6 µM | 
22 | CC(C)n1ncc2c(C(=O)Nc3ccc(S(C)(=O)=O)cc3)cc(C3CC3)nc21 | inconclusive [inhibitor, single point] | 
23 | COc1ccc(S(=O)(=O)N(C)C[C@H]2OCc3cnnn3CCCC(=O)N([C@H](C)CO)C[C@H]2C)cc1 |  | inconclusive: -31% [inhibitor]

Row | Compound | Potency | activity change, negative = growth inhibition
24 | CCS(=O)(=O)Nc1ccc2[nH]c(=O)[nH]c2c1 | inactive | 
25 | COc1ccc(OC)c(CNC(=O)Cc2c(C(=O)O)[nH]c3ccc(Cl)cc23)c1 | inconclusive [inhibitor, single point] | 
26 | O=S(=O)(CCN1CCN(c2ccccn2)CC1)c1ccc(F)cc1 | inactive | 
27 | Cc1nc2ncnn2c(C)c1Cc1ccc(Cl)cc1 | inconclusive [inhibitor, partial curve] | 
28 | COc1ccc(NS(=O)(=O)c2cc(NC(=O)c3cccs3)ccc2N2CCCC2)cc1 | active: 20.6 µM | 
29 | Cc1ccc(CNc2nc(-c3ccco3)nn2C(=O)c2ccccc2[N+](=O)[O-])cc1 | active: 18.4 µM | 
30 | CC(=O)N1CCC[C@H]1C(=O)NCC1Cc2cc(Cl)cc(-c3ccc4[nH]ccc4c3)c2O1 (stereo partly specified) | inconclusive [inhibitor, single point] | 
31 | CSCC[C@H](NC(=O)NC1CCCC1)C(=O)O | inactive | 
32 | Cc1ccc(CSc2nnc(-c3ccncc3)n2C)cc1 | inactive | 
33 | Cn1cnc([N+](=O)[O-])c1Sc1ccc(Br)cc1 | inconclusive [inhibitor, single point] | 
34 | NC(=O)c1cccc(S(=O)(=O)N2CC(c3ccccc3)CC2=O)c1 (stereo unspecified) | inconclusive [inhibitor, partial curve] | 
35 | O=C(Cc1n[nH]c(=O)c2ccccc12)NCc1ccc(Cl)cc1 | inactive | 
36 | Cc1ccc(S(=O)(=O)N2CCCCC2c2cccnc2)c(C)c1C (stereo unspecified) | active: 23.1 µM | 
37 | O=C(Nc1nc2ccccc2[nH]1)c1ccc(F)c(S(=O)(=O)N2CCOCC2)c1 | inconclusive [inhibitor, single point] | 
38 | O=c1[nH][nH]cc1C=Nc1cc(Cl)ccc1O | inconclusive [inhibitor, single point] | 
39 | CCOC(=O)[C@]12CCC=C1N(Cc1ccccc1)C(=O)[C@H](CC(=O)NCc1ccc(OC)c(OC)c1)C2 | inconclusive [inhibitor, single point] | 
40 | COCc1c(C#N)c(NCCc2ccccc2)nc(C)c1[N+](=O)[O-] | inconclusive [inhibitor, single point] | 
41 | COc1ccc(C2CC(O)(c3ccccc3)Oc3cc(OC)cc(OC)c32)cc1 (stereo unspecified) | inconclusive [inhibitor, single point] | 
42 | COc1ccc(N2CC(C(=O)NCCS(=O)(=O)N3CCN(c4ccccc4)CC3)CC2=O)cc1 (stereo unspecified) | inactive | 
43 | O=C(NC1CC1)c1ccc(CSCc2cccc(F)c2)o1 | inconclusive [inhibitor, partial curve] | 
44 | COc1ccc2cc3cc(C(=O)N4CCCCCC4)oc3nc2c1 | inconclusive [inhibitor, single point] | 
45 | COc1ccccc1C(=O)NC(=S)NC12CC3CC(CC(C3)C1)C2 | inactive | 
46 | CC(C)n1c(NCc2ccc(Cl)cc2)nc2ccccc21 | inconclusive [inhibitor, partial curve] | 
